The values that follow come from the supplement of paper PMC11417369.

± gives the standard deviation of the averaged measurements. The list shows a part of the results.

The subject of this test is PfAP2-G AP2 domain (GST-tagged). As to the kind of experiment: gcPBM binding intensity (ln(normalized median fluorescence intensity)); higher = stronger DNA binding. The gist of the method:
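The highest Masliner-normalised natural-log median intensity across replicate spots of either probe orientation is reported as binding intensity. GST-tagged P. falciparum DNA-binding domains expressed in E. coli were applied for 1 h to an Agilent 4 × 180k array of primer-extended double-stranded 36-bp intergenic genomic probes plus negative controls, and bound protein was detected with Alexa488 anti-GST antibody and scanned at 488 nm.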
As to “TATAAAGGTGAAATTTGTACATAGTCATTTTTTAAT [XGTACX_site4811]”, the “gcPBM binding intensity (ln)” value was 10.7 ± 0.41.

For “TGATTAAAAGAGGGAAAAAAAAAAAAAAAAAAAAAA [CACACA_negctrl_site896]”, the “gcPBM binding intensity (ln)” value was found to be 9.62 ± 0.25.

Regarding TGACGAAAAAAAAGGGTGCTTAGTATAACTTTAAAG, the “gcPBM binding intensity (ln)” value amounted to 10.03 ± 0.035.

For the sequence “TTCTTTTTTAAACACACACACACAAGAAAATATATA [CACACA_site5680]”, the “gcPBM binding intensity (ln)” value amounted to 10.4 ± 0.33.

Take “TATATTATTATATATTGTACTTTTTATATTTGCATT [XGTACX_site2978]”: the “gcPBM binding intensity (ln)” value was determined as 11.2 ± 0.67.

With TACACTTGTAATTGCGTGCACGAAGGATATATATAT, the “gcPBM binding intensity (ln)” value is 10.4 ± 0.27.

With TATGTATATTTTTTTGTGCACATATATATATATATA, the “gcPBM binding intensity (ln)” value came out at 10.4 ± 0.35.

Take “TATGAATATCTATACACACACATATATATACTCACT [CACACA_site1597]”: the “gcPBM binding intensity (ln)” value is 9.85 ± 0.14.

For “CAAAGATATATAAACACACAAATATAACATATATAC [CACACA_site7395]”, the “gcPBM binding intensity (ln)” value is 9.93 ± 0.057.

On to “TATATTATTAATTAAGCACACATTATTTTTATAATA [CACACA_site3982]”, for which the “gcPBM binding intensity (ln)” value was 9.91.

On to “TAACATAATATAGACACACACATGTACATATGCCAA [CACACA_site1842]”, for which the “gcPBM binding intensity (ln)” value worked out at 11.1 ± 0.64.

For “TAAAAAAATAAATATACACACATATATAAATATGTA [CACACA_site6641]”, the “gcPBM binding intensity (ln)” value stood at 9.67 ± 0.042.

For “ATTTTTTTTTTAAAATGTACATGAGAAATTGTATAT [XGTACX_site425]”, the “gcPBM binding intensity (ln)” value came out at 11.2 ± 0.93.

Take “TTTCTTATATAAGTGTACTAAAATATATATATGCAA [GTGCAC_negctrl_site546]”: the “gcPBM binding intensity (ln)” value stood at 11.2 ± 0.84.

As to “ATATAACTTTTCTTAACACACAAAAAACAAAAATAA [CACACA_site2380]”, the “gcPBM binding intensity (ln)” value was determined as 10.2 ± 0.17.

Take “AAGTGTCAAAGTTACACACACAAACTTGTCATTTTT [CACACA_site837]”: the “gcPBM binding intensity (ln)” value came to 9.99.

As to “GGTATACATATTAAATGTACATATTTTAACAATAAG [XGTACX_site4868]”, the “gcPBM binding intensity (ln)” value worked out at 11.1 ± 0.51.

In the case of “AAATATAATAATAATTTAAGAATCTAATATTTTATA [CACACA_negctrl_site831]”, the “gcPBM binding intensity (ln)” value turned out to be 9.36 ± 0.17.

Regarding “TACTATATCGATACCAGTACAGATTTATAAATAATA [XGTACX_site7491]”, the “gcPBM binding intensity (ln)” value came to 10.9 ± 0.59.

For the sequence “TATATTAAGTATAAGACACACATATAGTAATAGAAA [CACACA_site5176]”, the “gcPBM binding intensity (ln)” value came out at 10.2 ± 0.33.

On to “TTATAAAAAAAAATAACACACAGACATAAGAATAAA [CACACA_site9383]”, for which the “gcPBM binding intensity (ln)” value is 10.11 ± 0.078.

As to “ATATAATTATATAAATGTACTCATTCGTTATTTTGC [XGTACX_site6132]”, the “gcPBM binding intensity (ln)” value was found to be 11.3 ± 0.83.

Regarding “TATCTTATGTCTGAAAGTACAAATTTTTTTCTACTT [XGTACX_site2208]”, the “gcPBM binding intensity (ln)” value amounted to 10.8 ± 0.56.

For the sequence “ATATATATATAATAAAGTACAAATTCTAAATGATAT [XGTACX_site570]”, the “gcPBM binding intensity (ln)” value was 11 ± 0.61.

Take “ATTATCTATCGTTTTTGTACTTACACCTTAATACAA [XGTACX_site7337]”: the “gcPBM binding intensity (ln)” value was found to be 11.1 ± 0.65.

For the sequence “CTTTTTTTTTTTTTTGCGCACTGTTTAAAGGGAAAT [GTGCAC_site9815]”, the “gcPBM binding intensity (ln)” value turned out to be 10.4 ± 0.52.

Consider “ACTACGAATGGTAGAGTGCAGTCTGGAGAAAAGTAC [GTGCAC_site9681]”, for which the “gcPBM binding intensity (ln)” value turned out to be 10.7 ± 0.47.

Take “TTTTTTTTTTTTTTTTATTTATATATATATATATAT [CACACA_negctrl_site582]”: the “gcPBM binding intensity (ln)” value came to 9.81 ± 0.61.

Regarding “AAAAAAAATGAAAGGTGTACACATACAAACATAGAA [XGTACX_site3517]”, the “gcPBM binding intensity (ln)” value amounted to 11.7 ± 0.88.

Turning to “AAATAATATATTCTATATAATAAATTATAAATATAA [GTGCAC_negctrl_site558]”, the “gcPBM binding intensity (ln)” value is 9.31 ± 0.34.

Regarding “ATATATATATATATATATATATATATATATTATATA [XGTACX_negctrl_site48]”, the “gcPBM binding intensity (ln)” value came to 9.76 ± 0.64.

For the sequence “ATATGACTGTTCATTTGTACGTATAATTATATACGT [XGTACX_site3372]”, the “gcPBM binding intensity (ln)” value came out at 11.5 ± 0.9.

With “ATACAACTAATAAGTAGTACAATATACATATATTAT [XGTACX_site7086]”, the “gcPBM binding intensity (ln)” value turned out to be 11.5 ± 0.83.

Turning to “AAATATTTTTAGAGTGCATGTAATAAAAATATAATG [TGCATGCA_site19]”, the “gcPBM binding intensity (ln)” value came to 10.2 ± 0.13.

Regarding “AAATGAGATATAAAATGTACATATTGTAAGTAAACA [XGTACX_site1237]”, the “gcPBM binding intensity (ln)” value is 11.1 ± 0.62.

For “TTAATTATATCAGGACGTACTAATATAAATATATAT [XGTACX_site8909]”, the “gcPBM binding intensity (ln)” value worked out at 11.1 ± 0.79.

Turning to “GGGATATATTATTATACACACATATATAAAAGCTTT [CACACA_site2445]”, the “gcPBM binding intensity (ln)” value was 9.89 ± 0.071.

Turning to “GTGCAAAATATTTTTACACACAAATTTTTACAACAG [CACACA_site3357]”, the “gcPBM binding intensity (ln)” value was found to be 10.07 ± 0.078.

In the case of “AAAAATAAATAAGACACACACAAAAAAAAAAAAAAA [CACACA_site1432]”, the “gcPBM binding intensity (ln)” value came to 9.91 ± 0.52.

Consider “AATGTAACAACTTTTTGTACTTAAGAAATAATAAAT [XGTACX_site3310]”, for which the “gcPBM binding intensity (ln)” value was determined as 10.9 ± 0.58.

As to “TAAAAAATTATATTCACACACATACCCATATATATA [CACACA_site4458]”, the “gcPBM binding intensity (ln)” value was 10 ± 0.23.

As to “TAAAATTTATAAACTACACACATATATATAGTAATA [CACACA_site3728]”, the “gcPBM binding intensity (ln)” value is 10.06 ± 0.078.

Take CGTTGGTATTAAAAGGTGCAATGAAATAATATATTA: the “gcPBM binding intensity (ln)” value was found to be 10.3 ± 0.37.

For “AAGATCGCATGAAATGAACACACATAAAAAAAATAT [CACACA_site9353]”, the “gcPBM binding intensity (ln)” value is 10.1 ± 0.11.

As to “TTTTTCAGATCCTATATAGTATCATATAAATTCCAT [CACACA_negctrl_site56]”, the “gcPBM binding intensity (ln)” value is 9.96 ± 0.15.

Turning to “TTAAGAAAAAAAAAAAGTACACACATATAATATATA [XGTACX_site6268]”, the “gcPBM binding intensity (ln)” value amounted to 11.6 ± 1.

On to “TAATTTAGATATATAAAGAATTAAAGTTAACATTCT [CACACA_negctrl_site726]”, for which the “gcPBM binding intensity (ln)” value came out at 9.46 ± 0.21.

As to “TATCATATATGAAGGTGTACGATTTATTATATAAAT [XGTACX_site7010]”, the “gcPBM binding intensity (ln)” value came to 11.4 ± 0.95.

Take “ATTTTTGAACGGTACAGTACAGAATTTAATTAACCC [XGTACX_site47]”: the “gcPBM binding intensity (ln)” value is 11.2 ± 0.81.

Consider “TTATTTAAAATTTTTATGCGTATATATATAGGAACA [CACACA_negctrl_site388]”, for which the “gcPBM binding intensity (ln)” value is 10.3 ± 0.4.

In the case of “TTAGTTTATTGGTACTGTACTTTTTTTTTCTCCATT [XGTACX_site8618]”, the “gcPBM binding intensity (ln)” value was 11.9 ± 0.91.

With “TGTCATCATCTTAAATGTACAAAAAGGAAATATAAA [XGTACX_site1529]”, the “gcPBM binding intensity (ln)” value was found to be 10.8 ± 0.36.

Regarding “TTTTTATTTACACTTTTTATTTATATATTATGTACG [CACACA_negctrl_site158]”, the “gcPBM binding intensity (ln)” value amounted to 10.24 ± 0.028.

As for “TTTATATATTTCATAATACACACGAAAAAAAAAAAA [CACACA_site2970]”, the “gcPBM binding intensity (ln)” value is 10.1 ± 0.36.

On to “ATATAATCAGCTTCTCTTTTATGCTAAAAAAAAAAA [CACACA_negctrl_site1310]”, for which the “gcPBM binding intensity (ln)” value is 9.79 ± 0.35.

Take “ATAAATAATATAAATACACACTAAAAAAAATATATA [CACACA_site4456]”: the “gcPBM binding intensity (ln)” value turned out to be 9.89 ± 0.099.

Turning to “CACAAAATAAATTAAACACACAACATCATAGATGTA [CACACA_site4619]”, the “gcPBM binding intensity (ln)” value came out at 9.79 ± 0.27.
